The campaign covered roughly 310,000 compounds. About 14,000 (4.5%) showed an effect of 50% or more. Effects have a minus sign here. Some of the results follow.
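Also: peak tail current of the secondary pulse compared with the same well before compound.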

This experiment deals with human ether-à-go-go-related gene (hERG) potassium channel (human, UniProt Q12809). Put plainly: primary screen, population patch clamp on CHO cells stably expressing hERG.
Chain of human ether-à-go-go-related gene (hERG) potassium channel (Q12809 whole entry, looked up): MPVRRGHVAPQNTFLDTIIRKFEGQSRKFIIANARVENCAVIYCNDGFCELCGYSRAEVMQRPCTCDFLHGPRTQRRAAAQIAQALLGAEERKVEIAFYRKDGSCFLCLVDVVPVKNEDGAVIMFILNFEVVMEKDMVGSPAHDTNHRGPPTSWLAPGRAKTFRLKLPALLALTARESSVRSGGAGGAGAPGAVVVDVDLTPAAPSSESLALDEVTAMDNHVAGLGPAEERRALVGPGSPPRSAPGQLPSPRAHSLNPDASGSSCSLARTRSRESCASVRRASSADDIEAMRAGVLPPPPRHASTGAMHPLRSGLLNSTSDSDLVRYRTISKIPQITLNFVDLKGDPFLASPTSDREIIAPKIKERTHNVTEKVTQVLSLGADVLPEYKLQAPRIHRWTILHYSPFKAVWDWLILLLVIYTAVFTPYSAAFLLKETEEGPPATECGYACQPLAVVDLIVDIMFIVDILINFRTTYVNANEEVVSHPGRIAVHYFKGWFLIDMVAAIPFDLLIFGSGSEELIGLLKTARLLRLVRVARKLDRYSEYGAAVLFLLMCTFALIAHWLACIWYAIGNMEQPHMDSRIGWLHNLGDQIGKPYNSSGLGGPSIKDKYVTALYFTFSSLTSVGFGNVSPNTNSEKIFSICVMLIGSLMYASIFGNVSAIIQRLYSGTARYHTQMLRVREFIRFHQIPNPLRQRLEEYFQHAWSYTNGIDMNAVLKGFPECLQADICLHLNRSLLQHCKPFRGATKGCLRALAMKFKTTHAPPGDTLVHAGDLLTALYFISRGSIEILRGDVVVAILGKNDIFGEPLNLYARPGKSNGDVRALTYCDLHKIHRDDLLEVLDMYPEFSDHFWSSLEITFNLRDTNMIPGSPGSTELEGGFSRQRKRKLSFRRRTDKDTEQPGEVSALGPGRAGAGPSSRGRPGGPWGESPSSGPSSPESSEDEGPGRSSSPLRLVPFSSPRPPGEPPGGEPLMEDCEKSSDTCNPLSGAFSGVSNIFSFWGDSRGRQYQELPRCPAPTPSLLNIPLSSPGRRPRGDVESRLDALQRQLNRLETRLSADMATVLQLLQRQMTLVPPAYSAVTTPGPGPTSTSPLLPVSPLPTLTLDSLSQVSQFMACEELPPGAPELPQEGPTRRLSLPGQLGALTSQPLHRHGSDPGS
Regarding `CCCCCN1CN(S(=O)(=O)c2cccs2)c2nc3ccccc3nc21`, the “hERG current change (%, negative = inhibition) at 10uM” value stood at 0.435%. As for `CC(C)CS(=O)(=O)C1=NN2C(=N)/C(=C\c3ccc(OC(=O)c4ccco4)cc3)C(=O)N=C2S1`, the “hERG current change (%, negative = inhibition) at 10uM” value came to 6.44%.

In the case of `O=C(CC1SC(=NC2CCCCC2)NC1=O)Nc1ccccc1` (stereo not drawn), the “hERG current change (%, negative = inhibition) at 10uM” value turned out to be 9.37%. As to `CCOC(=O)N1CCN(Cc2ccc(OCC(O)CN3CCCCC3)cc2)CC1` (stereo not drawn), the “hERG current change (%, negative = inhibition) at 10uM” value was determined as 15.7%. The value for `CCOc1ccccc1NC(=S)NCc1cccn1C` was 32.2%. The value for `CC(=O)N1N=C(c2cccc(NS(=O)(=O)c3ccc(C)cc3)c2)CC1c1ccco1` (stereo not drawn) was 17%.

`CCOc1ccc(NC(=O)N(C2CCCCCC2)C2CCN(C(C)=O)CC2)cc1`: the “hERG current change (%, negative = inhibition) at 10uM” value is recorded as -5.04%. The figure for `COc1ccc(NC(=O)CCS(=O)(=O)c2ccc3c(c2)CCN3C(C)=O)cc1` is 2.3%; for `Cc1ccc(C)c(NS(=O)(=O)c2ccc(OCC(=O)N3CCCC3)cc2)c1` it is -16.9%; for `CCCC(=O)Nc1cccc(-c2cn3ccsc3n2)c1` it is -47.5%.

With `Cc1ccc(NC(=O)CN(C)C(=O)c2ccc(Br)o2)cc1`, the “hERG current change (%, negative = inhibition) at 10uM” value was determined as 17.5%.

Regarding `CCn1cc(C(=O)NCCCN(CC(C)C)CC(C)C)c(=O)c2cc(S(=O)(=O)N(C)C3CCCCC3)ccc21`, the “hERG current change (%, negative = inhibition) at 10uM” value is listed as -69.6%. The value for `Cn1cnnc1SC1CCCCC1NS(=O)(=O)c1ccc(Cl)cc1` (stereo not drawn) was 10.2%.

Turning to `O=C(CSc1nnc(C2COc3ccccc3O2)o1)Nc1ccc(F)cc1Cl` (stereo not drawn), the “hERG current change (%, negative = inhibition) at 10uM” value is recorded as -1.21%. The value for `O=C(Nc1ccnn1C1CCN(Cc2ccc(O)c(Cl)c2)CC1)C1CCCC1` was -33%; that for `COc1ccc(CCN(Cc2cccs2)S(=O)(=O)c2ccc(-n3cnnn3)cc2)cc1OC` was -52.5%. The value for `c1ccc(OCc2nn3c(-c4cccnc4)nnc3s2)cc1` was -29.5%; that for `c1ccc(NC2=NCCN2CC2CCC2)cc1` was -12.1%.

Regarding `Cc1ccc(S(=O)(=O)N2CCOCC2)cc1NC(=O)CNCc1cccnc1.O=C(O)C(=O)O`, the “hERG current change (%, negative = inhibition) at 10uM” value is listed as -7.98%.

For `C/C(NC(=O)c1ccccc1)=C1/C(=O)CC2C1C2(C)C` (stereo not drawn), the “hERG current change (%, negative = inhibition) at 10uM” value is recorded as 2.15%.

With `O=C(NCc1ccc(Cl)cc1)c1cccc(NC(=O)c2ccccc2)c1`, the “hERG current change (%, negative = inhibition) at 10uM” value is listed as -0.3%.

Consider `Cc1ccsc1C(=O)C1CCCN(Cc2cnc(N(C)C)s2)C1` (stereo not drawn), for which the “hERG current change (%, negative = inhibition) at 10uM” value was -9.23%. The figure for `Cc1ccc(-n2c(Cc3ccccc3)n[nH]c2=S)c(C)c1` is 11.7%; for `Cc1ccc(CCNC(=O)C2CCC(=O)N2C(C)C)cc1` (stereo not drawn) it is 14.5%. Regarding `Cc1noc(C)c1C(=O)Nc1ccc(F)c(F)c1`, the “hERG current change (%, negative = inhibition) at 10uM” value is on record as 25.4%.

Take `CCN(CCn1cccn1)Cc1cn[nH]c1-c1ccc(-c2ccccc2)cc1`: the “hERG current change (%, negative = inhibition) at 10uM” value is given as 9.21%.

`Cc1ccc(Cn2nc(C)c(NC(=O)CSc3n[nH]c(C)c3[N+](=O)[O-])c2C)cc1`: the “hERG current change (%, negative = inhibition) at 10uM” value is given as -11.3%.

In the case of `Cc1cc(OCCSc2nnc(-c3cccs3)n2C)ccc1Cl`, the “hERG current change (%, negative = inhibition) at 10uM” value is given as -22.5%. As for `Cc1ccc(OCC(=O)N/N=C\c2c(C)n(C)c3ccccc23)c([N+](=O)[O-])c1`, the “hERG current change (%, negative = inhibition) at 10uM” value was 12.8%. Consider `CCc1nn(C(C)C(=O)NCCc2ccc(OC)c(OC)c2)c(=O)c2cc3occc3n12` (stereo not drawn), for which the “hERG current change (%, negative = inhibition) at 10uM” value is -5.84%. As to `Cc1cccc(OCC(=O)O/N=C(\N)Cc2cccs2)c1`, the “hERG current change (%, negative = inhibition) at 10uM” value turned out to be 8.58%.

Turning to `O=C(COC(=O)c1cnccn1)c1ccc(C2CCCCC2)cc1`, the “hERG current change (%, negative = inhibition) at 10uM” value came to 2.8%. Take `Cc1ccc(OCCCCn2ccnc2C)c(C)c1.O=C(O)C(=O)O`: the “hERG current change (%, negative = inhibition) at 10uM” value is on record as -64.1%. For `CCOC(=O)Cc1csc(NC(=O)c2cccc(Cl)c2)n1`, the “hERG current change (%, negative = inhibition) at 10uM” value is reported as -13%. The value for `COC(=O)c1cccc(C(=O)N2CCCC(C(=O)c3ccccc3OC)C2)c1` (stereo not drawn) was -20%; that for `CCN(CC)C(=O)CN1C(=O)C2(OCC(C)(c3ccccc3)CO2)c2ccccc21` (stereo not drawn) was -23.9%. The value for `CCN(CC)S(=O)(=O)c1ccc(Cl)c(NC(=O)c2ccc(C#N)cc2)c1` was -28.4%; that for `CC1CN(c2cc([N+](=O)[O-])ccc2Cl)CC(C)N1` (stereo not drawn) was -22.4%; that for `CCOc1cc(/C=C2/C(=O)N(c3ccccc3)N=C2C)ccc1OC(=O)c1ccco1` was 6.56%. As to `COc1cc(NC(=O)CCc2c(C)[nH]c(=O)c(C#N)c2C)cc(OC)c1`, the “hERG current change (%, negative = inhibition) at 10uM” value was 15.7%. The value for `CCOC(=O)N1CCN(C(=O)c2ccc3c(=O)n(CCc4ccccc4)c(=S)[nH]c3c2)CC1` was 11.4%; that for `COc1ccc(N2C(=O)NC(=O)C(CCc3ccncc3)(CCc3ccncc3)C2=O)cc1` was -23.6%. The figure for `CC(C)[C@H](N)C(=O)NC[C@H](CC(=O)NCC1CCC(C(=O)O)CC1)c1ccc(Cl)cc1.Cl` (stereo partly drawn) is 17.4%. The figure for `CCCCSc1nc2c(c(=O)[nH]c(=O)n2C)n1CCc1ccccc1` is 16.1%; for `Cc1ccsc1C(=O)NCCC(c1ccccc1)c1ccccc1` it is 14.3%. Turning to `O=C(O)CN1C(=O)/C(=C\c2cccc(OC(=O)c3ccco3)c2)SC1=S`, the “hERG current change (%, negative = inhibition) at 10uM” value is 0.715%. Turning to `COC(=O)c1ccc2c(=O)n(CC3CCCO3)c(SCC(=O)NCCc3ccc(S(N)(=O)=O)cc3)nc2c1` (stereo not drawn), the “hERG current change (%, negative = inhibition) at 10uM” value is reported as 17.5%. The figure for `O=C(Nc1nc2cc3c(cc2s1)OCCO3)c1cccc(N2C(=O)CCC2=O)c1` is -18.3%; for `COc1cc(/C=N/NC(=O)c2ccncc2)ccc1OC(=O)c1ccco1` it is 7.02%.

`COc1ccc(CN2CCNC(=O)C2CC(=O)N(C)Cc2cc(C)no2)cc1OC` (stereo not drawn): the “hERG current change (%, negative = inhibition) at 10uM” value worked out at 8.98%. The value for `CCCCn1c(N)c(N(CC(C)C)C(=O)CCCn2c(=O)oc3ccccc32)c(=O)[nH]c1=O` was -9.71%; that for `COc1cccc(CNC(=O)C2(C)Oc3ccccc3NC2=O)c1` (stereo not drawn) was 5.34%. The value for `CSc1nc(N2CCOCC2)c2ccccc2n1` was -4.05%; that for `CC(=O)Nc1ccc(N2C(=O)CC(N3CC(C)OC(C)C3)C2=O)cc1` (stereo not drawn) was 11.2%. The figure for `COc1cc(/C=N/NC(=O)c2cccnc2)ccc1OC(=O)c1cc(OC)c(OC)c(OC)c1` is 17.3%; for `O=C(CSc1nnc(-c2ccco2)o1)N1CCOCC1` it is -5.9%; for `CN1CCN(C(=O)C2CCCN(c3ncnc4c3nc3n4CCCCC3)C2)CC1` (stereo not drawn) it is 1.36%. As to `Cc1cc(OCC(=O)NCc2ccccn2)cc(C)c1Br`, the “hERG current change (%, negative = inhibition) at 10uM” value was -69.4%.

In the case of `CCOc1ccc(N(C(=O)c2snc(C(N)=O)c2N)C(C(=O)NC2CCCC2)c2ccncc2)cc1` (stereo not drawn), the “hERG current change (%, negative = inhibition) at 10uM” value is reported as 21.2%. With `CCCCn1c(=N)n(CC(O)COc2cccc(C)c2)c2ccccc21.Cl` (stereo not drawn), the “hERG current change (%, negative = inhibition) at 10uM” value was -72.6%. The value for `N#Cc1cccc(NC(=O)c2ccccc2C(=O)O)c1` was 2.3%; that for `Cc1ccc(NC(=O)c2nc[nH]c2C(=O)N2CCOCC2)c(C(=O)c2ccccc2)c1` was -14.7%. On to `CC(=O)Nc1ccc(NC(=O)CSc2nnc(C)n2-c2ccccc2)cc1`, for which the “hERG current change (%, negative = inhibition) at 10uM” value stood at 26.1%. Take `Cc1ccc(NCc2ccncc2)c(Br)c1.O=C(O)C(=O)O`: the “hERG current change (%, negative = inhibition) at 10uM” value came to 16.1%. Consider `N#Cc1cc(-c2ccccc2)nnc1Oc1ccccc1Cl`, for which the “hERG current change (%, negative = inhibition) at 10uM” value turned out to be 7.52%. The value for `COc1ccc(CN2CCN(C(=O)Cc3ccccc3)CC2)cc1Br.O=C(O)C(=O)O` was -1.42%; that for `Nc1ccc(Oc2ccc([N+](=O)[O-])cc2[N+](=O)[O-])cc1` was -37.7%.

As to `Cc1cc(C(=O)COc2cccc(-n3cnnn3)c2)c(C)n1-c1ccccc1`, the “hERG current change (%, negative = inhibition) at 10uM” value was -8.98%. With `CCOc1ccccc1NC(=O)CCCn1cc([N+](=O)[O-])cn1`, the “hERG current change (%, negative = inhibition) at 10uM” value is -13.8%. In the case of `COc1ccc(C(=O)NCCCc2ccccc2)cc1OC`, the “hERG current change (%, negative = inhibition) at 10uM” value is listed as 8.25%. The figure for `Cl.OC(CN1CCOCC1)Cn1c2c(c3ccccc31)CCCC2` (stereo not drawn) is -3.25%. On to `CCN(Cc1ccccc1)C(=O)C(=O)c1cn(CC(=O)N2CCCC2)c2ccccc12`, for which the “hERG current change (%, negative = inhibition) at 10uM” value worked out at 7.16%. The figure for `CC1=CN2C(=NC(=O)CC2(C)C(=O)N(CC(=O)NC2CCCC2)Cc2ccc(Cl)cc2)C=C1` (stereo not drawn) is 6.53%; for `NC(=O)[C@H]1CC2(CC(c3cccc(NC(=O)COc4ccc(Cl)cc4)c3)=NO2)CN1C(=O)CC(c1ccccc1)c1ccccc1` (stereo partly drawn) it is 4.79%; for `COc1ccccc1/C=C/CN1CCC(Oc2ccc(C(=O)N3CCCCC3)cc2)CC1` it is -44.6%.

Regarding `O=c1c2cccnc2n(-c2ccccc2)n1Cc1ccc(Cl)cc1`, the “hERG current change (%, negative = inhibition) at 10uM” value came out at 12.7%. On to `CCc1ccc(C(C)NC(=O)c2ccc3c(c2)OCO3)cc1` (stereo not drawn), for which the “hERG current change (%, negative = inhibition) at 10uM” value is 9.01%. The figure for `CCN1CCN(c2ccc(NC(=O)c3ccc(Cl)c(N4CCCC4=O)c3)cc2)CC1` is 13.1%; for `CCCN(CC(=O)Nc1ccc(F)c(F)c1F)C(=O)c1cc([N+](=O)[O-])ccc1N1CCOCC1` it is -67.1%; for `Cc1ccc(S(=O)(=O)C(C)C(=O)c2ccc3c(c2)OCCO3)cc1` (stereo not drawn) it is -28.9%. The figure for `CCOc1ccccc1N(C)C(=O)c1sc2ncn(CC(=O)N3CCCCC3C)c(=O)c2c1C` (stereo not drawn) is 6.44%; for `Cn1c(Cl)c(/C=N/OC(=O)C(C)(C)C)c2ccccc21` it is 9.27%; for `O=C(CN1C(=O)NC(Cc2c[nH]c3ccccc23)C1=O)Nc1ccc(F)c(F)c1F` (stereo not drawn) it is -5.36%. The figure for `Nc1ccc(C#Cc2ccc3sc4ccccc4c(=O)c3c2)cc1` is 7.9%.

Source of the values: article PMC4336329 (PLoS ONE, 2015).
